{"source": "the supplement of paper PMC8728848", "binders": {"B1": {"name": "Morniga (Morus nigra) (protein)", "chain": "MAGTSTNTQTTGTSQTVEVGLWGGPGGNAWDDGSYTGIREINLSHGDAIGAFSVIYDLNGQPFTGPTHPGNEPSFKTVKITLDFPNEFLVSVSGYTGVLPRLATGKDVIRSLTFKTNKKTYGPYGKEEGTPFSLPIENGLIVGFKGRSGFVVDAIGVHLS"}}, "assay_in_all_cases": "glycan array binding signal (z-score within array); higher = stronger binding", "details_in_all_cases": "glycan notation: IUPAC condensed, linker removed", "key": {"[1]": {"biological_target": "Man(a1-2)Man(a1-3)[Man(a1-2)Man(a1-6)]Man(a1-6)[Man(a1-2)Man(a1-2)Man(a1-3)]Man(b1-4)GlcNAc(b1-4)GlcNAc", "in_short": "(§1)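 Columns mapping to the same glycan were averaged after glycan names were converted to IUPAC-condensed notation. The data come from 3228 arrays in the Consortium for Functional Glycomics database, limited to those with an available protein sequence. Binding is reported as a within-array Z-score averaged across arrays of one protein sequence and across linkers.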"}, "[2]": {"biological_target": "Man(a1-2)Man(a1-3)[Man(a1-6)]Man(a1-6)[Man(a1-2)Man(a1-3)]Man(b1-4)GlcNAc(b1-4)GlcNAc", "in_short": "as §1"}, "[3]": {"biological_target": "Man(a1-2)Man(a1-6)[Man(a1-3)]Man(a1-6)[Man(a1-2)Man(a1-2)Man(a1-3)]Man", "in_short": "as §1"}, "[4]": {"biological_target": "Man(a1-2)Man(a1-6)[Man(a1-3)]Man(a1-6)[Man(a1-2)Man(a1-2)Man(a1-3)]Man(b1-4)GlcNAc(b1-4)GlcNAc", "in_short": "as §1"}, "Man(a1-3)[Man(a1-6)]Man": {"biological_target": "Man(a1-3)[Man(a1-6)]Man", "in_short": "as §1"}, "[5]": {"biological_target": "Man(a1-3)[Man(a1-6)]Man(a1-6)[Man(a1-2)Man(a1-3)]Man(b1-4)GlcNAc(b1-4)GlcNAc", "in_short": "as §1"}, "[6]": {"biological_target": "Man(a1-3)[Man(a1-6)]Man(a1-6)[Man(a1-3)]Man", "in_short": "as §1"}, "[7]": {"biological_target": "Man(a1-3)[Man(a1-6)]Man(a1-6)[Man(a1-3)]Man(b1-4)GlcNAc(b1-4)GlcNAc", "in_short": "as §1"}, "[8]": {"biological_target": "Man(a1-3)[Man(a1-6)]Man(b1-4)GlcNAc(b1-4)GlcNAc", "in_short": "as §1"}, "[9]": {"biological_target": "Man(a1-3)[Man(a1-6)]Man(b1-4)GlcNAc(b1-4)[Fuc(a1-6)]GlcNAc", "in_short": "as §1"}, "Man(a1-6)Man": {"biological_target": "Man(a1-6)Man", "in_short": "as §1"}, "Man(b1-4)GlcNAc": {"biological_target": "Man(b1-4)GlcNAc", "in_short": "as §1"}, "Neu5Ac(a2-3)Gal": {"biological_target": "Neu5Ac(a2-3)Gal", "in_short": "as §1"}, "[10]": {"biological_target": "Neu5Ac(a2-3)Gal(b1-3)GalNAc", "in_short": "as §1"}, "[11]": {"biological_target": "Neu5Ac(a2-3)Gal(b1-3)GalNAc(b1-3)Gal(a1-4)Gal(b1-4)Glc", "in_short": "as §1"}, "[12]": {"biological_target": "Neu5Ac(a2-3)Gal(b1-3)GalNAc(b1-4)[Neu5Ac(a2-3)]Gal(b1-4)Glc", "in_short": "as §1"}, "[13]": {"biological_target": "Neu5Ac(a2-3)Gal(b1-3)GalNAc(b1-4)[Neu5Ac(a2-8)Neu5Ac(a2-3)]Gal(b1-4)Glc", "in_short": "as §1"}, "[14]": {"biological_target": "Neu5Ac(a2-3)Gal(b1-3)GalNAc6S", "in_short": "as §1"}, "[15]": {"biological_target": "Neu5Ac(a2-3)Gal(b1-3)GlcNAc", "in_short": "as §1"}, "[16]": {"biological_target": "Neu5Ac(a2-3)Gal(b1-3)GlcNAc(b1-2)Man(a1-3)[GlcNAc(b1-4)][Neu5Ac(a2-3)Gal(b1-3)GlcNAc(b1-2)Man(a1-6)]Man(b1-4)GlcNAc(b1-4)GlcNAc", "in_short": "as §1"}, "[17]": {"biological_target": "Neu5Ac(a2-3)Gal(b1-3)GlcNAc(b1-3)Gal(b1-3)GlcNAc", "in_short": "as §1"}, "[18]": {"biological_target": "Neu5Ac(a2-3)Gal(b1-3)GlcNAc(b1-3)Gal(b1-4)GlcNAc", "in_short": "as §1"}, "[19]": {"biological_target": "Neu5Ac(a2-3)Gal(b1-3)GlcNAc(b1-3)GalNAc", "in_short": "as §1"}, "[20]": {"biological_target": "Neu5Ac(a2-3)Gal(b1-3)GlcNAc(b1-6)GalNAc", "in_short": "as §1"}, "[21]": {"biological_target": "Neu5Ac(a2-3)Gal(b1-3)GlcNAc6S", "in_short": "as §1"}, "[22]": {"biological_target": "Neu5Ac(a2-3)Gal(b1-3)[Fuc(a1-4)]GlcNAc", "in_short": "as §1"}, "[23]": {"biological_target": "Neu5Ac(a2-3)Gal(b1-3)[Fuc(a1-4)]GlcNAc(b1-3)Gal(b1-3)[Fuc(a1-4)]GlcNAc", "in_short": "as §1"}, "[24]": {"biological_target": "Neu5Ac(a2-3)Gal(b1-3)[Fuc(a1-4)]GlcNAc(b1-3)Gal(b1-4)[Fuc(a1-3)]GlcNAc", "in_short": "as §1"}, "[25]": {"biological_target": "Neu5Ac(a2-3)Gal(b1-3)[Neu5Ac(a2-3)Gal(b1-4)]GlcNAc", "in_short": "as §1"}, "[26]": {"biological_target": "Neu5Ac(a2-3)Gal(b1-3)[Neu5Ac(a2-6)]GalNAc", "in_short": "as §1"}, "[27]": {"biological_target": "Neu5Ac(a2-3)Gal(b1-3)[Neu5Ac(a2-6)]GlcNAc(b1-3)[Fuc(a1-3)[Gal(b1-4)]GlcNAc(b1-6)]Gal(b1-4)Glc", "in_short": "as §1"}, "Neu5Ac(a2-3)Gal(b1-4)Glc": {"biological_target": "Neu5Ac(a2-3)Gal(b1-4)Glc", "in_short": "as §1"}, "[28]": {"biological_target": "Neu5Ac(a2-3)Gal(b1-4)GlcNAc", "in_short": "as §1"}, "[29]": {"biological_target": "Neu5Ac(a2-3)Gal(b1-4)GlcNAc(b1-2)Man", "in_short": "as §1"}, "[30]": {"biological_target": "Neu5Ac(a2-3)Gal(b1-4)GlcNAc(b1-2)Man(a1-3)[GlcNAc(b1-2)Man(b1-4)GlcNAc(b1-2)Man(a1-6)]Man(b1-4)GlcNAc(b1-4)GlcNAc", "in_short": "as §1"}, "[31]": {"biological_target": "Neu5Ac(a2-3)Gal(b1-4)GlcNAc(b1-2)Man(a1-3)[Neu5Ac(a2-3)Gal(b1-4)GlcNAc(b1-2)Man(a1-6)]Man(b1-4)GlcNAc(b1-4)[Fuc(a1-6)]GlcNAc", "in_short": "as §1"}, "[32]": {"biological_target": "Neu5Ac(a2-3)Gal(b1-4)GlcNAc(b1-2)Man(a1-3)[Neu5Ac(a2-6)Gal(b1-4)GlcNAc(b1-2)Man(a1-6)]Man(b1-4)GlcNAc(b1-4)GlcNAc", "in_short": "as §1"}, "[33]": {"biological_target": "Neu5Ac(a2-3)Gal(b1-4)GlcNAc(b1-2)[Neu5Ac(a2-3)Gal(b1-4)GlcNAc(b1-6)]Man(a1-6)[Neu5Ac(a2-3)Gal(b1-4)GlcNAc(b1-2)Man(a1-3)]Man(b1-4)GlcNAc(b1-4)GlcNAc", "in_short": "as §1"}, "[34]": {"biological_target": "Neu5Ac(a2-3)Gal(b1-4)GlcNAc(b1-3)Gal", "in_short": "as §1"}, "[35]": {"biological_target": "Neu5Ac(a2-3)Gal(b1-4)GlcNAc(b1-3)Gal(b1-3)GlcNAc", "in_short": "as §1"}, "[36]": {"biological_target": "Neu5Ac(a2-3)Gal(b1-4)GlcNAc(b1-3)Gal(b1-4)GlcNAc", "in_short": "as §1"}, "[37]": {"biological_target": "Neu5Ac(a2-3)Gal(b1-4)GlcNAc(b1-3)Gal(b1-4)GlcNAc(b1-3)Gal(b1-4)GlcNAc", "in_short": "as §1"}, "[38]": {"biological_target": "Neu5Ac(a2-3)Gal(b1-4)GlcNAc(b1-3)Gal(b1-4)[Fuc(a1-3)]GlcNAc", "in_short": "as §1"}, "[39]": {"biological_target": "Neu5Ac(a2-3)Gal(b1-4)GlcNAc(b1-3)GalNAc", "in_short": "as §1"}, "[40]": {"biological_target": "Neu5Ac(a2-3)Gal(b1-4)GlcNAc(b1-3)[Neu5Ac(a2-3)Gal(b1-4)GlcNAc(b1-6)]GalNAc", "in_short": "as §1"}}, "note": "Some of the results follow."}
{"binder": "B1", "values": [{"measurement": "glycan array binding signal (z-score)", "setting": "[1]", "value": 0.503}, {"measurement": "glycan array binding signal (z-score)", "setting": "[2]", "value": -0.266}, {"measurement": "glycan array binding signal (z-score)", "setting": "[3]", "value": -0.325}, {"measurement": "glycan array binding signal (z-score)", "setting": "[4]", "value": -0.147}, {"measurement": "glycan array binding signal (z-score)", "setting": "Man(a1-3)[Man(a1-6)]Man", "value": -0.336}, {"measurement": "glycan array binding signal (z-score)", "setting": "[5]", "value": 4.19}, {"measurement": "glycan array binding signal (z-score)", "setting": "[6]", "value": -0.322}, {"measurement": "glycan array binding signal (z-score)", "setting": "[7]", "value": 2.9}, {"measurement": "glycan array binding signal (z-score)", "setting": "[8]", "value": 5.03}, {"measurement": "glycan array binding signal (z-score)", "setting": "[9]", "value": 4.02}, {"measurement": "glycan array binding signal (z-score)", "setting": "Man(a1-6)Man", "value": -0.344}, {"measurement": "glycan array binding signal (z-score)", "setting": "Man(b1-4)GlcNAc", "value": -0.338}, {"measurement": "glycan array binding signal (z-score)", "setting": "Neu5Ac(a2-3)Gal", "value": -0.344}, {"measurement": "glycan array binding signal (z-score)", "setting": "[10]", "value": -0.343}, {"measurement": "glycan array binding signal (z-score)", "setting": "[11]", "value": -0.342}, {"measurement": "glycan array binding signal (z-score)", "setting": "[12]", "value": -0.336}, {"measurement": "glycan array binding signal (z-score)", "setting": "[13]", "value": -0.332}, {"measurement": "glycan array binding signal (z-score)", "setting": "[14]", "value": -0.342}, {"measurement": "glycan array binding signal (z-score)", "setting": "[15]", "value": -0.331}, {"measurement": "glycan array binding signal (z-score)", "setting": "[16]", "value": 0.445}, {"measurement": "glycan array binding signal (z-score)", "setting": "[17]", "value": -0.332}, {"measurement": "glycan array binding signal (z-score)", "setting": "[18]", "value": -0.339}, {"measurement": "glycan array binding signal (z-score)", "setting": "[19]", "value": -0.338}, {"measurement": "glycan array binding signal (z-score)", "setting": "[20]", "value": -0.299}, {"measurement": "glycan array binding signal (z-score)", "setting": "[21]", "value": -0.34}, {"measurement": "glycan array binding signal (z-score)", "setting": "[22]", "value": -0.337}, {"measurement": "glycan array binding signal (z-score)", "setting": "[23]", "value": -0.328}, {"measurement": "glycan array binding signal (z-score)", "setting": "[24]", "value": -0.319}, {"measurement": "glycan array binding signal (z-score)", "setting": "[25]", "value": -0.344}, {"measurement": "glycan array binding signal (z-score)", "setting": "[26]", "value": -0.271}, {"measurement": "glycan array binding signal (z-score)", "setting": "[27]", "value": -0.329}, {"measurement": "glycan array binding signal (z-score)", "setting": "Neu5Ac(a2-3)Gal(b1-4)Glc", "value": -0.331}, {"measurement": "glycan array binding signal (z-score)", "setting": "[28]", "value": -0.342}, {"measurement": "glycan array binding signal (z-score)", "setting": "[29]", "value": -0.286}, {"measurement": "glycan array binding signal (z-score)", "setting": "[30]", "value": 2.99}, {"measurement": "glycan array binding signal (z-score)", "setting": "[31]", "value": 1.34}, {"measurement": "glycan array binding signal (z-score)", "setting": "[32]", "value": 2.56}, {"measurement": "glycan array binding signal (z-score)", "setting": "[33]", "value": 0.705}, {"measurement": "glycan array binding signal (z-score)", "setting": "[34]", "value": -0.34}, {"measurement": "glycan array binding signal (z-score)", "setting": "[35]", "value": -0.325}, {"measurement": "glycan array binding signal (z-score)", "setting": "[36]", "value": -0.342}, {"measurement": "glycan array binding signal (z-score)", "setting": "[37]", "value": -0.342}, {"measurement": "glycan array binding signal (z-score)", "setting": "[38]", "value": -0.334}, {"measurement": "glycan array binding signal (z-score)", "setting": "[39]", "value": -0.339}, {"measurement": "glycan array binding signal (z-score)", "setting": "[40]", "value": -0.342}]}
